Consider 172 sequences from publication PMC10668032.

The other results are listed elsewhere or left out. At the low end of the ranking the order means little.

The test has as its target SIX1-Q177R homeodomain (UniProt Q15475). In words: universal protein binding microarray. Particulars: Universal all-10-mer PBM (8x60K, AMADID 030236), 300 nM GST-tagged protein, Alexa Fluor 488 anti-GST; buffer, salt, pH and temperature not stated; high values mean tight binding; most listed sequences are background and not binding sites; double strand, one strand shown.
Regarding TCAATGCA, the binding signal was -0.215 E-score.

With GTAAAGTA, the binding signal stood at 0.0252 E-score.

Turning to CAGCGCGC, the binding signal is -0.109 E-score.

With CATACAGG, the binding signal was -0.0352 E-score.

As for GCACCATA, the binding signal amounted to 0.174 E-score.

On to CTGAAGCC, for which the binding signal was -0.209 E-score.

As to CAGGGGAA, the binding signal is -0.0155 E-score.

With GAGGTAAA, the binding signal was -0.117 E-score.

With ACGCCACT, the binding signal was determined as 0.159 E-score.

GAAGCTGC: the binding signal is -0.192 E-score.

In the case of ATTCGACC, the binding signal was -0.0517 E-score.

As for CATCCTGA, the binding signal is -0.147 E-score.

GTCCGTGA: the binding signal is 0.00588 E-score.

For the sequence ACTTACCA, the binding signal came to 0.025 E-score.

Regarding ACACAAAT, the binding signal came out at 0.167 E-score.

For AGTTTGAC, the binding signal was -0.0847 E-score.

As for CCAACTGC, the binding signal was -0.223 E-score.

For AGCCCGTG, the binding signal stood at 0.122 E-score.

CAAGCATG: the binding signal was -0.189 E-score.

With ACCACCTG, the binding signal is 0.11 E-score.

For AGCAGCCA, the binding signal was -0.32 E-score.

AGGTGGCA: the binding signal is -0.0817 E-score.

Regarding CACTTTGC, the binding signal amounted to 0.0429 E-score.

For the sequence ACTTTAGG, the binding signal is -0.0441 E-score.

On to CATAATCG, for which the binding signal is -0.0719 E-score.

With GACGTTGA, the binding signal is -0.0104 E-score.

As to AATTGTCA, the binding signal turned out to be 0.114 E-score.

On to AAAATCTG, for which the binding signal was -0.0398 E-score.

As to GACACTGC, the binding signal is 0.433 E-score.

As for CAAGGCCC, the binding signal is -0.115 E-score.

In the case of ATTTCAGC, the binding signal is -0.197 E-score.

On to GCTTCTCA, for which the binding signal was -0.188 E-score.

With ATTTTCCG, the binding signal was -0.179 E-score.

AAGTATCA: the binding signal came to 0.117 E-score.

With CAATGCGA, the binding signal is -0.0103 E-score.

On to ATCATAAA, for which the binding signal was -0.105 E-score.

As for AGAACGGC, the binding signal is -0.205 E-score.

As to ATAATGAC, the binding signal amounted to 0.076 E-score.

For the sequence ACACGCGG, the binding signal amounted to 0.402 E-score.

As for AATCGGGG, the binding signal is 0.0944 E-score.

As to CCTGCAAG, the binding signal was -0.0321 E-score.

As for CCGACTTA, the binding signal is 0.0346 E-score.

As to CATAATTC, the binding signal was -0.14 E-score.

For the sequence GCAAGTAC, the binding signal is -0.17 E-score.

As for CGGATAAG, the binding signal was found to be 0.132 E-score.

Take ACTCGCTC: the binding signal was -0.121 E-score.

Regarding AAAATACG, the binding signal was -0.0456 E-score.

On to CGCGATGA, for which the binding signal is -0.235 E-score.

For the sequence CGCAAGAC, the binding signal is -0.0941 E-score.

Regarding ATTAGAGA, the binding signal was -0.222 E-score.

On to AAGATAAC, for which the binding signal turned out to be 0.0106 E-score.

Take AACTATCG: the binding signal was -0.00075 E-score.

CAACTCTG: the binding signal stood at 0.0185 E-score.

In the case of GGAGGGTA, the binding signal was determined as 0.224 E-score.

For AACACGTT, the binding signal came to 0.272 E-score.

Regarding CATATGAG, the binding signal is 0.0636 E-score.

Regarding GCACCAAA, the binding signal worked out at 0.084 E-score.

Consider CTTGGCTA, for which the binding signal is -0.149 E-score.

CGAGCACG: the binding signal came to 0.143 E-score.

For the sequence CCCGAAAC, the binding signal was -0.0264 E-score.

As for CCTGTGTA, the binding signal is 0.192 E-score.

ACCCGATG: the binding signal is 0.0993 E-score.

Regarding AGGGATAC, the binding signal came out at 0.165 E-score.

With AGATTTGG, the binding signal was -0.19 E-score.

AAACGTAA: the binding signal is -0.113 E-score.

For TTCTGCAA, the binding signal was determined as 0.00631 E-score.

As for AGCGACAG, the binding signal was -0.187 E-score.

ATTCTGTA: the binding signal is -0.191 E-score.

As to CCCCTAGC, the binding signal is 0.177 E-score.

For GACTATGC, the binding signal is -0.0682 E-score.

Consider ACCGTTAA, for which the binding signal was 0.0075 E-score.

On to GTGAAAAC, for which the binding signal was -0.146 E-score.

Take TCCAGGGA: the binding signal was -0.09 E-score.

Consider CGCCAGGA, for which the binding signal is -0.131 E-score.

For the sequence CACCAGAC, the binding signal amounted to 0.338 E-score.

For AAGACCGT, the binding signal was -0.191 E-score.

As for CTACCTCA, the binding signal is 0.0378 E-score.

GATATAAC: the binding signal amounted to 0.117 E-score.

As to CCTAAACG, the binding signal is -0.0409 E-score.

With CCAGAAGC, the binding signal is -0.12 E-score.

GGTATTGA: the binding signal came to 0.13 E-score.

As to GGATAGCC, the binding signal was -0.175 E-score.

Take AACAGGGA: the binding signal is -0.0219 E-score.

As to ATGGTTTA, the binding signal was -0.0473 E-score.

CGCTTTTC: the binding signal is -0.0906 E-score.

As to CGCCTGCA, the binding signal was -0.0514 E-score.

With CCTTCCAA, the binding signal came to 0.0489 E-score.

On to GAGCCTGA, for which the binding signal was -0.225 E-score.

CAGGCTAC: the binding signal worked out at 0.0322 E-score.

On to CGGGGCAG, for which the binding signal came to 0.0491 E-score.

For ACATTTCA, the binding signal is -0.185 E-score.

Turning to CACCGTAA, the binding signal was 0.147 E-score.

Turning to GATCGACC, the binding signal is -0.0785 E-score.

As to CGTCCGCA, the binding signal came out at 0.0357 E-score.

In the case of AGGTTGAT, the binding signal is -0.017 E-score.

In the case of GACGAGTA, the binding signal is -0.0741 E-score.

In the case of CACCGTCG, the binding signal is 0.267 E-score.

As to AGGCACGC, the binding signal was -0.178 E-score.

On to ACCAGCAA, for which the binding signal was -0.0731 E-score.

Take CTGCTAGC: the binding signal was -0.244 E-score.

On to ATGGTTCG, for which the binding signal is -0.0202 E-score.

For the sequence GGACCCGA, the binding signal was -0.136 E-score.

On to AATAGCAC, for which the binding signal amounted to 0.202 E-score.

As for AGAGTTTG, the binding signal is -0.185 E-score.

Regarding GACTGGCA, the binding signal is -0.197 E-score.

For the sequence TAGACCTA, the binding signal is -0.253 E-score.

For AAGCCATG, the binding signal is -0.227 E-score.

For CACAGAAG, the binding signal came to 0.117 E-score.

With CATTGAAG, the binding signal is -0.0829 E-score.

Consider GACGGTAC, for which the binding signal was -0.00061 E-score.

GGAGTACA: the binding signal amounted to 0.246 E-score.

As for GCCCCAAC, the binding signal is -0.269 E-score.

As for AGATTCAG, the binding signal was -0.031 E-score.

For CCGTCTGC, the binding signal is -0.0226 E-score.

With GATGGGGC, the binding signal was -0.171 E-score.

For the sequence ACGGTAGG, the binding signal was 0.0701 E-score.

Regarding GGAGGCCC, the binding signal is -0.167 E-score.

CTAGAGAG: the binding signal was -0.179 E-score.

Regarding CAGCACGA, the binding signal was -0.0715 E-score.

Consider AAGCATCG, for which the binding signal is -0.0803 E-score.

As to GGGAAGAC, the binding signal was -0.111 E-score.

Consider CACGCCCG, for which the binding signal worked out at 0.237 E-score.

With CCTCTGAC, the binding signal was found to be 0.175 E-score.

As to AGGTATGG, the binding signal was -0.0114 E-score.

In the case of AATTCCAG, the binding signal was -0.248 E-score.

On to AATGGCGC, for which the binding signal was -0.195 E-score.

With GCCATGAC, the binding signal was -0.0321 E-score.

With TATGCTAA, the binding signal is -0.126 E-score.

ATGCGAAA: the binding signal is -0.112 E-score.

Take ACGGTCCA: the binding signal was -0.132 E-score.

Turning to AAGACGTG, the binding signal came out at 0.166 E-score.

With CAGTCACC, the binding signal is 0.14 E-score.

On to AAGGTTCA, for which the binding signal is -0.146 E-score.

As for AAAGTCCT, the binding signal is -0.241 E-score.

As to CGCATCAA, the binding signal is -0.0928 E-score.

Turning to AATCTCCA, the binding signal is -0.0982 E-score.

With AAGCAGAA, the binding signal was -0.209 E-score.

In the case of CGCTTCCC, the binding signal is -0.0547 E-score.

On to ATATGCGC, for which the binding signal was -0.0469 E-score.

For AGGCAGCG, the binding signal is -0.0573 E-score.

Regarding ACATACAA, the binding signal is -0.243 E-score.

On to CCCTAATA, for which the binding signal was -0.0212 E-score.

Turning to GATACCCA, the binding signal was 0.362 E-score.

As to GTGGTGCA, the binding signal worked out at 0.189 E-score.

As for ACTCCACT, the binding signal amounted to 0.263 E-score.

Turning to CCGATGAG, the binding signal was found to be 0.00878 E-score.

With GCGTTGTA, the binding signal is -0.0954 E-score.

GAGCACCC: the binding signal stood at 0.283 E-score.

Consider GGTGCCAA, for which the binding signal stood at 0.187 E-score.

AGACCTCA: the binding signal was -0.185 E-score.

For the sequence ACGGATCC, the binding signal worked out at 0.126 E-score.

Take ACTTATCT: the binding signal was -0.123 E-score.

Consider AGTCCCAA, for which the binding signal is -0.196 E-score.

Regarding GCGTGTAA, the binding signal worked out at 0.441 E-score.

As to GCCACTAA, the binding signal was -0.195 E-score.

For GGTAACGA, the binding signal was found to be 0.142 E-score.

GTTGAGAA: the binding signal was -0.16 E-score.

For the sequence TATTCCAA, the binding signal is -0.0868 E-score.

Take ATCGTCCG: the binding signal was -0.00533 E-score.

Turning to CACACCTC, the binding signal was found to be 0.403 E-score.

For CTGGTTAC, the binding signal worked out at 0.00475 E-score.

On to CGTTAGGC, for which the binding signal was -0.13 E-score.

For TAATGTCA, the binding signal is -0.167 E-score.

GAACGTAC: the binding signal is -0.0228 E-score.

Turning to CTTTTTTA, the binding signal was -0.226 E-score.

As for ACCCGCTG, the binding signal was 0.138 E-score.

Regarding CCGTCGAC, the binding signal amounted to 0.0973 E-score.

Turning to CATTATCA, the binding signal was determined as 0.000485 E-score.

Take CCGTTGCG: the binding signal was -0.159 E-score.

Turning to AGTTCTCG, the binding signal was -0.273 E-score.

Turning to TAGCGTGA, the binding signal is -0.11 E-score.

For the sequence GGGTTACA, the binding signal came out at 0.242 E-score.
